The supplement of paper PMC8285479
Several values for one entry are separate records, joined by “and”; a condition that tells them apart may be missing. Equal values may be shown once. Where a name gives a salt, the structure may show the parent alone. ± gives the standard deviation of the averaged measurements. The full ranking holds about 1,900 compounds; the median of “normalised cell viability (NPI; 0 = phenylarsine oxide control, 1 = DMSO control)” is about 1, and the lowest 2% start at about 0.039. This is one part of the list.

System: NCI-H1944
Assay: normalised cell viability (NPI; 0 = phenylarsine oxide control, 1 = DMSO control) (fraction of DMSO control); NCI-H1944 is a non-small cell lung cancer line; higher = more viable cells (less compound toxicity)
Conditions: 6 days
[1] = glucocorticoid arm: hydrocortisone 2.75 uM co-treatment, compound 1 µM
[2] = glucocorticoid arm: hydrocortisone 2.75 uM co-treatment, compound 5 µM
[3] = glucocorticoid arm: hydrocortisone 2.75 uM pre-treated 2 days and continued, compound 1 µM
[4] = glucocorticoid arm: hydrocortisone 2.75 uM pre-treated 2 days and continued, compound 5 µM
[5] = glucocorticoid arm: vehicle, compound 1 µM
[6] = glucocorticoid arm: vehicle, compound 5 µM
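Also: CTB read-out in 384-well plates, mean of triplicate wells, normalised per plate against 1 µM phenylarsine oxide and 0.1% DMSO, compounds added 24 h after seeding.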

Row | SMILES | normalised cell viability [1] | normalised cell viability [2] | normalised cell viability [3] | normalised cell viability [4] | normalised cell viability [5] | normalised cell viability [6]
1 | CCNc1nc(Nc2cc(F)c(C(=O)N3CCOCC3)cc2OC)ncc1C(F)(F)F | 0.9993 ± 0.0097 | 1.017 ± 0.0058 | 1.005 ± 0.0092 | 1.02 ± 0.025 | 0.9993 ± 0.0011 | 1.013 ± 0.0058
2 | O=C1Nc2ccc(I)cc2/C1=C/c1cc(Br)c(O)c(Br)c1 | 1.02 ± 0.01 | 1.05 ± 0.01 | 1.007 ± 0.0058 | 1.04 ± 0.017 | 1.001 ± 0.009 | 1.013 ± 0.0058
3 | O=C1N=C(O)NC1(c1ccccc1)c1ccccc1 [Phenytoin sodium] | 0.9917 ± 0.0093 | 0.953 ± 0.024 | 0.997 ± 0.0017 | 0.962 ± 0.021 | 0.9957 ± 0.0015 | 0.9883 ± 0.0042
4 | CN(C)c1ccc(-c2nc3ncc(Cl)c(N4CCN(CC(=O)Nc5nccs5)CC4)c3[nH]2)cc1 | 0.921 ± 0.049 | 0.934 ± 0.03 | 0.947 ± 0.037 | 0.941 ± 0.02 | 0.957 ± 0.047 | 0.982 ± 0.024
5 | Cc1nc2ccc(NC(=O)Nc3ccnc4cccnc34)cc2o1 | 1.01 ± 0.018 | 1.017 ± 0.0058 | 1.02 ± 0.015 | 1.001 ± 0.0081 | 1.007 ± 0.0058 | 0.993 ± 0.0066
6 | COc1cc(/C=C(\C#N)C(=O)c2ccc(O)c(O)c2)cc(I)c1O [I-OMe-Tyrphostin AG 538] | 0.9953 ± 0.0064 | 1.01 ± 0.01 | 1.01 ± 0.025 | 1.02 ± 0.02 | 0.998 ± 0.012 | 0.99 ± 0.0027
7 | COc1ccc(CCc2nc3cc(-c4c(C)noc4C)ccc3n2C[C@H](C)N2CCOCC2)cc1Cl | 0.989 ± 0.012 | 1.05 ± 0.01 | 0.967 ± 0.017 | 0.997 ± 0.02 | 1.01 ± 0.012 | 1.017 ± 0.0058
8 | CNCc1ccc(-c2[nH]c3cc(F)cc4c3c2CCNC4=O)cc1 | 0.982 ± 0.0036 | 1 ± 0.071 | 0.968 ± 0.0095 | 1.01 ± 0.022 | 0.989 ± 0.013 | 0.948 ± 0.022
9 | COc1ccc([C@@H]2Sc3ccccc3N(CCN(C)C)C(=O)[C@@H]2OC(C)=O)cc1 [Diltiazem hydrochloride] | 0.9967 ± 0.0058 | 0.974 ± 0.026 | 0.988 ± 0.015 | 0.982 ± 0.011 | 0.9893 ± 0.0046 | 0.9893 ± 0.006
10 | Cc1cn([C@H]2C[C@H](N=[N+]=[N-])[C@@H](CO)O2)c(=O)[nH]c1=O [3'-Azido-3'-deoxythymidine] | 0.99 ± 0.011 | 0.994 ± 0.0056 | 0.9893 ± 0.0081 | 0.989 ± 0.016 | 0.983 ± 0.017 | 0.9757 ± 0.0064
11 | CC(=N)NCc1cccc(CN)c1 [1400W dihydrochloride] | 1.01 ± 0.011 | 1.02 ± 0.027 | 1.017 ± 0.0058 | 1.037 ± 0.0058 | 0.998 ± 0.0035 | 1.003 ± 0.0058
12 | CC(C[N+](C)(C)C)OC(N)=O (configuration not stated) [Bethanechol chloride] | 1.01 |  | 1.02 and 1.01 |  | 1.01 | 
13 | Cc1c(NC(=O)OC[C@@H]2COCCN2)cn2ncnc(Nc3ccc4c(cnn4Cc4cccc(F)c4)c3)c12 | 0.92 ± 0.019 | 0.887 ± 0.015 | 0.932 ± 0.018 | 0.946 ± 0.016 | 0.925 ± 0.025 | 0.839 ± 0.02
14 | Cc1ccc2nc(NCCN)c3ncc(C)n3c2c1 | 0.9797 ± 0.0068 | 0.887 ± 0.012 | 1 ± 0.016 | 0.862 ± 0.015 | 0.9963 ± 0.0035 | 0.9863 ± 0.0064
15 | N[C@@H](Cc1c[nH]cn1)C(=O)O [L-Histidine hydrochloride] | 1.017 ± 0.0058 | 0.996 ± 0.012 | 1 ± 0.014 | 1.02 ± 0.01 | 0.9973 ± 0.0038 | 0.9973 ± 0.0046
16 | N=C(N)SCCc1ccc(CCSC(=N)N)cc1 [1,4-PBIT dihydrobromide] | 0.956 ± 0.0085 | 1 | 0.992 ± 0.016 | 0.979 ± 0.015 | 0.9697 ± 0.004 | 0.9727 ± 0.0081
17 | Cc1ccc(Sc2ccccc2N2CCNCC2)c(C)c1 | 1.013 ± 0.0058 | 0.9257 ± 0.0035 | 1.03 ± 0.021 | 0.986 ± 0.032 | 1.003 ± 0.0058 | 0.969
18 | CN1CCC(CNc2ccc3ncc(-c4cccc(OC(F)(F)F)c4)n3n2)CC1 [SGI-1776 free base] | 0.928 ± 0.019 | 0.601 ± 0.048 | 0.952 ± 0.014 | 0.718 ± 0.086 | 0.9658 ± 0.0071 | 0.534 ± 0.062
19 | C[C@H](NC(=O)CCc1nc2ccccc2c(=O)[nH]1)c1ccccc1 | 0.9887 ± 0.0083 | 1.02 ± 0.017 | 0.973 ± 0.024 | 1.03 ± 0.017 | 1.003 ± 0.0058 | 1.01 ± 0.01
20 | NCC(=O)CCC(=O)O [Aminolevulinic acid hydrochloride; Aminolevulinic acid] | 1.04 ± 0.021 | 0.0671 ± 0.0064 | 1.023 ± 0.0058 | 0.486 ± 0.037 | 1.001 ± 0.0081 | 0.00332 ± 0.0013
21 | COc1cc2c(cc1OC)[C@@H]1Cc3ccc(OC)c(OC)c3CN1CC2 [Rotundine] | 0.9957 ± 0.0045 | 1.03 ± 0.017 | 1.002 ± 0.0068 | 1.04 | 1.007 ± 0.0058 | 1.002 ± 0.0068
22 | O=C(CCCN1CCC(O)(c2ccc(Cl)cc2)CC1)c1ccc(F)cc1 [Haloperidol] | 0.996 ± 0.013 | 0.93 ± 0.023 | 1.01 | 1.01 ± 0.025 | 0.9843 ± 0.0035 | 0.985 ± 0.002
23 | O=c1[nH]c2cc(Cl)ccc2c(O)c1-c1cccc(Oc2ccccc2)c1 | 0.979 ± 0.02 | 0.978 ± 0.011 | 0.993 ± 0.028 | 1.02 ± 0.07 | 0.9737 ± 0.0021 | 0.991 ± 0.017
24 | COC(=O)[C@@H](N)Cc1ccc(O)c(O)c1 [L-3,4-Dihydroxyphenylalanine methyl ester hydrochloride] | 0.9923 ± 0.0086 | 0.973 ± 0.015 | 0.9893 ± 0.004 | 0.952 ± 0.012 | 0.9893 ± 0.0064 | 0.982 ± 0.0027
25 | COc1ccc2c(c1)c(CC(=O)O)c(C)n2Cc1ccc(Cl)cc1 [1-(4-Chlorobenzyl)-5-methoxy-2-methylindole-3-acetic acid] | 0.99 ± 0.011 | 1.02 ± 0.015 | 1.02 ± 0.01 | 1.01 ± 0.016 | 1.013 ± 0.0058 | 1.01
